# In the supplement of paper PMC8728848:
# The list shows a part of the results.
# Assays:
# Assay in all cases: glycan array binding signal (z-score within array); higher = stronger binding
# Details in all cases: glycan notation: IUPAC condensed, linker removed
# [1] = target: Fuc(a1-2)[GalNAc(b1-3)]Gal
# In short: (§1)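 From the Consortium for Functional Glycomics database, 3228 arrays were curated, keeping only those whose protein sequence was available. Binding is given as a within-array Z-score averaged across arrays sharing a protein sequence and across linkers. Negative Z-scores can be read as non-binding.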
# Fuc(a1-3)GlcNAc = target: Fuc(a1-3)GlcNAc
# In short: as §1
# [2] = target: Fuc(a1-3)[Gal(b1-4)]Glc6S
# In short: as §1
# [3] = target: Fuc(a1-3)[Gal(b1-4)]GlcNAc
# In short: as §1
# [4] = target: Fuc(a1-3)[Gal(b1-4)]GlcNAc(b1-2)Man
# In short: as §1
# [5] = target: Fuc(a1-3)[Gal(b1-4)]GlcNAc(b1-2)Man(a1-3)[Fuc(a1-3)[Gal(b1-4)]GlcNAc(b1-2)Man(a1-6)]Man(b1-4)GlcNAc(b1-4)GlcNAc
# In short: as §1
# [6] = target: Fuc(a1-3)[Gal(b1-4)]GlcNAc(b1-2)Man(a1-3)[Fuc(a1-3)[Gal(b1-4)]GlcNAc(b1-2)Man(a1-6)]Man(b1-4)GlcNAc(b1-4)[Fuc(a1-6)]GlcNAc
# In short: as §1
# [7] = target: Fuc(a1-3)[Gal(b1-4)]GlcNAc(b1-3)Gal(b1-3)[Fuc(a1-4)]GlcNAc
# In short: as §1
# [8] = target: Fuc(a1-3)[Gal(b1-4)]GlcNAc(b1-3)Gal(b1-4)[Fuc(a1-3)]GlcNAc
# In short: as §1
# [9] = target: Fuc(a1-3)[Gal(b1-4)]GlcNAc(b1-3)Gal(b1-4)[Fuc(a1-3)]GlcNAc(b1-3)Gal(b1-4)[Fuc(a1-3)]GlcNAc
# In short: as §1
# [10] = target: Fuc(a1-3)[Gal(b1-4)]GlcNAc(b1-3)GalNAc
# In short: as §1
# [11] = target: Fuc(a1-3)[Gal(b1-4)]GlcNAc(b1-6)GalNAc
# In short: as §1
# [12] = target: Fuc(a1-3)[Gal(b1-4)]GlcNAc(b1-6)[Gal(b1-3)GlcNAc(b1-3)]Gal(b1-4)Glc
# In short: as §1
# [13] = target: Fuc(a1-3)[Gal(b1-4)]GlcNAc6S
# In short: as §1
# [14] = target: Fuc(a1-3)[Gal3S(b1-4)]Glc
# In short: as §1
# [15] = target: Fuc(a1-3)[Gal3S(b1-4)]GlcNAc
# In short: as §1
# [16] = target: Fuc(a1-3)[Gal3S(b1-4)]GlcNAc6S
# In short: as §1
# [17] = target: Fuc(a1-3)[GalNAc(b1-4)]GlcNAc
# In short: as §1
# [18] = target: Fuc(a1-3)[GalNAc(b1-4)]GlcNAc6S
# In short: as §1
# Fuc(a1-4)GlcNAc = target: Fuc(a1-4)GlcNAc
# In short: as §1
# Fuc(b1-3)GlcNAc = target: Fuc(b1-3)GlcNAc
# In short: as §1
# Gal(a1-2)Gal = target: Gal(a1-2)Gal
# In short: as §1
# Gal(a1-3)Gal = target: Gal(a1-3)Gal
# In short: as §1
# Gal(a1-3)Gal(b1-3)GlcNAc = target: Gal(a1-3)Gal(b1-3)GlcNAc
# In short: as §1
# [19] = target: Gal(a1-3)Gal(b1-3)GlcNAc(b1-2)Man
# In short: as §1
# [20] = target: Gal(a1-3)Gal(b1-3)GlcNAc(b1-2)Man(a1-3)[Gal(a1-3)Gal(b1-3)GlcNAc(b1-2)Man(a1-6)]Man(b1-4)GlcNAc(b1-4)GlcNAc
# In short: as §1
# [21] = target: Gal(a1-3)Gal(b1-3)GlcNAc(b1-3)GalNAc
# In short: as §1
# [22] = target: Gal(a1-3)Gal(b1-3)GlcNAc(b1-6)GalNAc
# In short: as §1
# [23] = target: Gal(a1-3)Gal(b1-3)[Fuc(a1-4)]GlcNAc(b1-2)Man(a1-3)[Gal(a1-3)Gal(b1-3)[Fuc(a1-4)]GlcNAc(b1-2)Man(a1-6)]Man(b1-4)GlcNAc(b1-4)GlcNAc
# In short: as §1
# Gal(a1-3)Gal(b1-4)Glc = target: Gal(a1-3)Gal(b1-4)Glc
# In short: as §1
# Gal(a1-3)Gal(b1-4)GlcNAc = target: Gal(a1-3)Gal(b1-4)GlcNAc
# In short: as §1
# [24] = target: Gal(a1-3)Gal(b1-4)GlcNAc(b1-2)Man
# In short: as §1
# [25] = target: Gal(a1-3)Gal(b1-4)GlcNAc(b1-2)Man(a1-3)[Gal(a1-3)Gal(b1-4)GlcNAc(b1-2)Man(a1-6)]Man(b1-4)GlcNAc(b1-4)GlcNAc
# In short: as §1
# [26] = target: Gal(a1-3)Gal(b1-4)GlcNAc(b1-3)GalNAc
# In short: as §1
# [27] = target: Gal(a1-3)Gal(b1-4)GlcNAc(b1-6)GalNAc
# In short: as §1
# [28] = target: Gal(a1-3)Gal(b1-4)[Fuc(a1-3)]GlcNAc
# In short: as §1
# [29] = target: Gal(a1-3)Gal(b1-4)[Fuc(a1-3)]GlcNAc(b1-2)Man(a1-3)[Gal(a1-3)Gal(b1-4)[Fuc(a1-3)]GlcNAc(b1-2)Man(a1-6)]Man(b1-4)GlcNAc(b1-4)GlcNAc
# In short: as §1
# Gal(a1-3)GalNAc = target: Gal(a1-3)GalNAc
# In short: as §1
# [30] = target: Gal(a1-3)[Gal(a1-4)]Gal(b1-4)GlcNAc
# In short: as §1
# [31] = target: Gal(a1-4)Gal(b1-3)GlcNAc(b1-2)Man(a1-3)[Gal(a1-4)Gal(b1-3)GlcNAc(b1-2)Man(a1-6)]Man(b1-4)GlcNAc(b1-4)GlcNAc
# In short: as §1
# Gal(a1-4)Gal(b1-4)Glc = target: Gal(a1-4)Gal(b1-4)Glc
# In short: as §1
# Gal(a1-4)Gal(b1-4)GlcNAc = target: Gal(a1-4)Gal(b1-4)GlcNAc
# In short: as §1
# [32] = target: Gal(a1-4)Gal(b1-4)GlcNAc(b1-2)Man(a1-3)[Gal(a1-4)Gal(b1-4)GlcNAc(b1-2)Man(a1-6)]Man(b1-4)GlcNAc(b1-4)GlcNAc
# In short: as §1
# [33] = target: Gal(a1-4)Gal(b1-4)GlcNAc(b1-3)Gal(b1-4)Glc
# In short: as §1
# Gal(a1-4)GlcNAc = target: Gal(a1-4)GlcNAc
# In short: as §1
binder,measurement,setting,value
"CFEM-SCL (Saccharomyces cerevisiae), O13547 (protein) MRATTLLSSVVSLALLSKEVLATPPACLLACVAQVGKSSSTCDSLNQVTCYCEHENSAVKKCLDSICPNNDADAAYSAFKSSCSEQNASLGD",glycan array binding signal (z-score),[1],-0.27
same,glycan array binding signal (z-score),Fuc(a1-3)GlcNAc,-0.151
same,glycan array binding signal (z-score),[2],-0.155
same,glycan array binding signal (z-score),[3],-0.183
same,glycan array binding signal (z-score),[4],-0.048
same,glycan array binding signal (z-score),[5],-0.298
same,glycan array binding signal (z-score),[6],0.004
same,glycan array binding signal (z-score),[7],-0.249
same,glycan array binding signal (z-score),[8],-0.174
same,glycan array binding signal (z-score),[9],-0.244
same,glycan array binding signal (z-score),[10],1.5
same,glycan array binding signal (z-score),[11],2.59
same,glycan array binding signal (z-score),[12],-0.162
same,glycan array binding signal (z-score),[13],-0.014
same,glycan array binding signal (z-score),[14],0.331
same,glycan array binding signal (z-score),[15],-0.234
same,glycan array binding signal (z-score),[16],0.918
same,glycan array binding signal (z-score),[17],-0.142
same,glycan array binding signal (z-score),[18],-0.219
same,glycan array binding signal (z-score),Fuc(a1-4)GlcNAc,-0.205
same,glycan array binding signal (z-score),Fuc(b1-3)GlcNAc,-0.27
same,glycan array binding signal (z-score),Gal(a1-2)Gal,-0.188
same,glycan array binding signal (z-score),Gal(a1-3)Gal,-0.231
same,glycan array binding signal (z-score),Gal(a1-3)Gal(b1-3)GlcNAc,-0.239
same,glycan array binding signal (z-score),[19],-0.15
same,glycan array binding signal (z-score),[20],0.636
same,glycan array binding signal (z-score),[21],-0.327
same,glycan array binding signal (z-score),[22],-0.332
same,glycan array binding signal (z-score),[23],-0.161
same,glycan array binding signal (z-score),Gal(a1-3)Gal(b1-4)Glc,-0.284
same,glycan array binding signal (z-score),Gal(a1-3)Gal(b1-4)GlcNAc,-0.115
same,glycan array binding signal (z-score),[24],-0.276
same,glycan array binding signal (z-score),[25],-0.114
same,glycan array binding signal (z-score),[26],-0.281
same,glycan array binding signal (z-score),[27],-0.318
same,glycan array binding signal (z-score),[28],-0.119
same,glycan array binding signal (z-score),[29],0.415
same,glycan array binding signal (z-score),Gal(a1-3)GalNAc,-0.147
same,glycan array binding signal (z-score),[30],-0.238
same,glycan array binding signal (z-score),[31],-0.312
same,glycan array binding signal (z-score),Gal(a1-4)Gal(b1-4)Glc,-0.213
same,glycan array binding signal (z-score),Gal(a1-4)Gal(b1-4)GlcNAc,-0.056
same,glycan array binding signal (z-score),[32],-0.157
same,glycan array binding signal (z-score),[33],-0.239
same,glycan array binding signal (z-score),Gal(a1-4)GlcNAc,0.237
